Experimental data: PubChem BioAssay AID624202 (National Center for Advancing Translational Sciences (NCATS), 2012)
Screen size: about 380,000 compounds; about 4,000 (1.1%) were called active. The shares of active, inactive and inconclusive entries below differ from those in the screen. The call rests on the fitted dose curve; in most records, active means well fitted activation curve with a large enough effect; inconclusive means small, poorly fitted or top-dose-only effect; inactive means no such curve, though single readings can be large or run the other way. Where the call is inconclusive, the potency comes from a doubtful curve fit.

Assay: qHTS Assay to Identify Small Molecule Activators of BRCA1 Expression; further: nearly all actives have a fitted effect of over 80% in size
Details: MCF7-BRCA1-FFLuc reporter, luminescence, 48 h; activation: at 46.1 µM (top of the series), scaled: vehicle 0%, 10 µM genistein 100% unless noted
Method in brief: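 First, MCF7-BRCA1-FFLuc cells (2000/well) attach for 2 h; next, compounds are pin-added and incubated 48 h at 37 °C; finally, luciferase reagent is added and luminescence read after 15 min.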
Potency means the concentration at half of the fitted maximal effect; tags describe the fitted curve by direction and shape.

Row | SMILES | Potency | activation
1 | Clc1cccc(CN2C3=NCCCN3c3ccccc32)c1 | inactive | –
2 | Cc1ccc(-c2csc(-c3c[nH]c4ccccc34)n2)c(C)c1 | inactive | –
3 | Cc1ccc(CSc2ccc(-c3ccco3)nn2)cc1 | active: 3.55 µM | –
4 | CCOc1ccc(Nc2ccc(N)c(S(=O)(=O)O)c2)cc1 | inactive | –
5 | Cc1cccc(-n2cnc(C(=O)NC3CCCCCC3)c2)n1 | active: 10 µM | –
6 | CCc1ccc(NC(=O)Cn2ncc3c4ccccc4n(C)c3c2=O)cc1 | inactive | –
7 | COc1ccc(OCc2cc(C(=O)N3CCCCCC3)no2)c(Cl)c1 | inconclusive: 11.2 µM [activator, partial curve, poor fit] | –
8 | COc1ccc(NC(=O)c2ccc(OC(F)F)cc2)cc1Cl | inconclusive: 3.16 µM [activator, partial curve, poor fit] | –
9 | O=C(COc1ccc(Br)cc1Cl)NC(=O)Nc1ccc2c(c1)OCCO2 | active: 11.2 µM | –
10 | CC1(C(=O)NS(=O)(=O)c2ccc(Cl)s2)CCN1C(=O)Cc1ccc(-c2ccccc2)cc1 (stereo not drawn) | inactive | –
11 | CN1CCN(C(=O)c2cc3c(c(-c4cccc(Br)c4)n2)[C@H](CCO)N(S(=O)C(C)(C)C)C3)CC1 (stereo partly drawn) | inactive | –
12 | Cn1nc([N+](=O)[O-])nc1Oc1ccccc1C(=O)N1CCOCC1 | inactive | –
13 | CCCCCC(=O)Nc1ccc2oc(-c3cccnc3)nc2c1 | inconclusive: 17.8 µM [activator, partial curve, poor fit] | –
14 | COC(=O)c1c(-c2ccccc2)csc1NC1=NS(=O)(=O)c2ccccc21 | inconclusive: 1.78 µM [activator, full curve, poor fit] | –
15 | O=C(c1ccc(CSc2ccccc2)cc1)N1CCCCCC1 | inconclusive: 15.8 µM [activator, partial curve, poor fit] | –
16 | Cc1cccc(/C(N)=N/OC(=O)CCCc2ccccc2)c1 | inconclusive: 8.91 µM [activator, partial curve, poor fit] | –
17 | O=S1(=O)CC(c2ccccc2)=NN=C(c2ccccc2)C1 | – | inconclusive: 123% [activator]
18 | O=c1[nH]c(Nc2nc3ccccc3o2)nc2c1CCCC2 | – | inconclusive: -73.7% [activator]
19 | O=C(NC(=S)Nc1cccc(CO)c1)c1ccc(-c2ccccc2)cc1 | inactive | –
20 | COc1ccc(C(=O)Nc2nc(C)c(C)s2)cc1OC | inconclusive: 2.82 µM [activator, full curve, poor fit] | –
21 | Cc1cc(SCC(=O)c2cccc([N+](=O)[O-])c2)nc(=O)[nH]1 | inconclusive: 14.1 µM [activator, partial curve, poor fit] | –
22 | Nc1ccc2cc3ccccc3cc2c1 | inconclusive: 15.8 µM [activator, single point] | –
23 | Cc1nn(C)c(Cl)c1CN1CCN(CCC(C)C)C(CCO)C1 (stereo not drawn) | inactive | –
24 | O=C(Nc1ccccc1)N1CCN(Cc2ccccc2)CC1 | inconclusive: 12.6 µM [activator, partial curve, poor fit] | –

Row | SMILES | Potency | activation
25 | Brc1ccc(CSc2ccc(-c3ccco3)nn2)cc1 | inconclusive: 11.2 µM [activator, partial curve, poor fit] | –
26 | N#CCc1ccc(NC(=O)CSc2nnc(C3CC3)n2C2CC2)cc1 | inactive | –
27 | O=C(NCCSc1ccccn1)c1ccc(Cl)cc1 | inconclusive: 0.501 µM [activator, full curve, poor fit] | –
28 | Cc1nc2cc(NC(=O)CS(=O)(=O)c3ccccc3)ccc2s1 | inconclusive: 14.1 µM [activator, partial curve, poor fit] | –
29 | CCOc1cc2sc(N3CCC(C(=O)Nc4ccc(C)cc4)CC3)nc2cc1Br | inconclusive: 1.26 µM [activator, full curve, poor fit] | –
30 | CCOc1cc(/C=C(\C#N)C(=O)Nc2ccc(S(N)(=O)=O)cc2)ccc1OCCN1CCOCC1 | inactive | –
31 | COc1ccccc1-c1cc(C(=O)N2CCCCC2)no1 | inconclusive: 2.51 µM [activator, full curve, poor fit] | –
32 | Nc1[nH]c(=O)nc2nnsc12 | inactive | –
33 | Cc1cccc(-n2ccnc2SCC(=O)Nc2nccs2)c1 | inconclusive: 12.6 µM [activator, partial curve, poor fit] | –
34 | Cc1cccc(/C(N)=N/OC(=O)c2cccnc2)c1 | inconclusive: 1 µM [activator, full curve, poor fit] | –
35 | Cc1[nH][nH]c(=O)c1[C@@H](c1ccccc1[N+](=O)[O-])C(C#N)C#N | inactive | –
36 | Cc1cccc2c1-c1sc(C(=O)Nc3nccs3)cc1CO2 | inconclusive: 3.16 µM [activator, full curve, poor fit] | –
37 | Cc1ccc2c(CN(C)Cc3ccccc3)cc(=O)oc2c1 | inconclusive: 12.6 µM [activator, partial curve, poor fit] | –
38 | c1ccc(-c2cc(-c3ccccc3)[nH]n2)cc1 | inconclusive: 12.6 µM [activator, single point] | –
39 | N#Cc1ccsc1NC(=O)c1ccc2ncsc2c1 | inconclusive: 2.51 µM [activator, full curve, poor fit] | –
40 | COc1ccc(/C=N/n2cnc3c(sc(=S)n3-c3ccccc3)c2=O)cc1 | inactive | –
41 | Cc1nn(-c2ccccc2)c(Cl)c1/C=N/Nc1nnc(C)c(=O)[nH]1 | inconclusive: 15.8 µM [activator, partial curve, poor fit] | –
42 | CC1(C)CC(=O)C=C(c2ccc3[nH]ccc3c2)C1 | inactive | –
43 | O=C(N/N=C/c1cccc(F)c1)c1ccc(Cl)cc1 | inconclusive: 22.4 µM [activator, partial curve, poor fit] | –
44 | O=C(CC(SCCO)c1ccc2c(c1)OCO2)c1cccs1 (stereo not drawn) | active: 10 µM | –
45 | CC1(C)CC(=O)c2sc(NC(=O)c3ccc4ncsc4c3)nc2C1 | inconclusive: 11.2 µM [activator, partial curve, poor fit] | –
46 | c1ccc(COc2ccc(CN3CCN(c4ccccn4)CC3)cc2)cc1 | active: 2 µM | –
47 | Cc1cc(-c2ccccc2)cc(=O)[nH]1 | inactive | –
48 | CCOC(=O)C1CCN(C(=O)c2cc3cc4cc(OC)ccc4nc3o2)CC1 | inconclusive: 5.01 µM [activator, full curve, poor fit] | –
